PubChem BioAssay AID624171 (National Center for Advancing Translational Sciences (NCATS), 2012)
The campaign covered roughly 410,000 compounds. About 1,200 (0.29%) were called active. The shares of active, inactive and inconclusive entries below differ from those in the screen. Calls follow the shape of the dose curve; as a rule, active = well fitted activation curve with a large enough effect; inconclusive = small, poorly fitted or top-dose-only effect; inactive = flat fitted curve, though single readings scatter. Potencies beside an inconclusive call are fits to weak or partial responses and may not hold up.

Assay: qHTS of Nrf2 Activators; also: nearly all actives have a fitted effect of over 65% in size
Conditions: AREc32 ARE-luciferase reporter (MCF7-derived line), luminescence, 24 h; series mostly up to 46.1 µM
How it was run: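 Cells of the AREc32 ARE-luciferase line are plated in OPTI-MEM containing 5% FBS and left overnight at 37 deg C. Compounds are pinned in, incubation continues 24 hr, and firefly luciferase signal is then measured.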
Potency is read from the fitted curve at half-maximal effect; tags tell the direction and shape of the fitted curve.

SMILES	Potency
O=C(Nc1ccccc1)c1nc2ccccc2s1	inconclusive: 3.16 µM [activator, single point]
COC(=O)C1=C(C)N(c2ccc(Br)cc2)C(=O)/C1=C\c1ccco1	inconclusive: 7.08 µM [activator, partial curve, poor fit]
Cc1ccc(C(C)C)c(OCc2ccc(C(=O)N/N=C/c3ccc(C(=O)O)cc3)cc2)c1	inactive
COc1ccc(Cc2c(-c3cccc(Cl)c3)nc3ccc(Br)cn23)c(C)c1	inconclusive: 11.2 µM [activator, partial curve]
O=C(O)c1cccc([N+](=O)[O-])c1C(=O)Nc1ccc2ccccc2c1	inconclusive: 15.8 µM [activator, single point]
CC(=O)Oc1ccccc1-c1nc(/C=C/c2ccccc2)no1	active: 11.2 µM
C=CCOc1ccc(C(=O)Nc2ccc3c(c2)n(C)c(=O)n3C)cc1	inconclusive: 31.6 µM [activator, single point]
COC(=O)c1cc(Br)ccc1NC(=O)Nc1ccc(C)cc1	inactive
O=Cc1[nH]c2ccccc2c1N(C(=O)CCl)c1ccccc1	inconclusive: 31.6 µM [activator, single point]
O=C1C(=Cc2ccco2)CCCC1=Cc1ccco1	active: 3.16 µM
Nc1ncc(S(=O)(=O)c2ccc([N+](=O)[O-])cc2)s1	inconclusive: 12.6 µM [activator, single point]
CCn1cc([N+](=O)[O-])c(C(=O)Nc2nc3ccc(OC)cc3s2)n1	inconclusive: 25.1 µM [activator, single point]
O=c1[nH]c(Nc2nc3ccccc3o2)nc2c1CCCC2	inconclusive: 5.62 µM [activator, single point]
O=[N+]([O-])c1cncc([N+](=O)[O-])c1Nc1cccc(O)c1	inconclusive: 6.31 µM [activator, partial curve, poor fit]
CCc1nc(SCC(=O)NC2CCCC2)c2oc3ccccc3c2n1	inactive
CC(C)(C)c1nnc2sc(SCC(=O)c3cccs3)nn2c1=O	inconclusive: 25.1 µM [activator, single point]
COc1ccc(C=C(c2nc3ccccc3s2)c2nc3ccccc3s2)cc1O	inconclusive: 12.6 µM [activator, partial curve]
O=[N+]([O-])c1cccc(NNS(=O)(=O)c2ccccc2F)c1	inconclusive: 20 µM [activator, single point]
Cc1cc(C)c(C#N)c(SCC(=O)c2ccccc2)n1	active: 2.82 µM
O=S1(=O)Nc2c(ccc3cccnc23)-c2ccccc21	active: 7.08 µM
